In all, about 390,000 compounds went through this assay and about 930 (0.24%) were called active. Inconclusive means that the source gave no clear call. Such entries were picked first, then a sample of the others. Calls follow the shape of the dose curve; as a rule, active = well fitted activation curve with a large enough effect; inconclusive = small, poorly fitted or top-dose-only effect; inactive = no such curve, though single readings can be large or run the other way. Potencies of inconclusive entries are doubtful fits and often do not repeat.
assay: qHTS for Suppressors of FUS Proteinopathy: Primary screen using FUS-linked yeast assay; also: nearly all actives have a fitted effect of over 55% in size; conditions: S. cerevisiae FUS-expressing, OD600, 24 h; Potency: growth rescue; series mostly up to 76.6 µM
Procedure, shortened: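 Galactose (2%) drives FUS expression in yeast precultured in raffinose; seeding density OD 0.005. Test compounds incubated 24hr at 30C and 99% humidity before absorbance at 600 nm was measured.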
Potency is read from the fitted curve at half-maximal effect; tags tell the direction and shape of the fitted curve.

SMILES	Potency
COC(=O)C1=C(C)NC2=C(C(=O)CCC2)C1c1cn(Cc2ccc(Br)cc2)nc1-c1ccccc1 (centres undefined)	inconclusive: 11.2 µM [activator, single point]
CCN1CCCC1Cn1cnc2c([nH]c3cccc(Cl)c32)c1=O (centres undefined)	inconclusive: 3.98 µM [activator, partial curve, poor fit]
CC(=O)c1ccc(OCc2cc(C(=O)N(C)C3CCOC3)no2)cc1 (centres undefined)	inactive
COc1ccc(N2CC(NC(=O)c3ccco3)CC2=O)cc1OC (centres undefined)	inactive
Cc1csc2ncnc(N3CCN(C(=S)Nc4ccc(C(F)(F)F)cc4)CC3)c12	inconclusive: 50.1 µM [activator, single point]
Fc1ccccc1NC(=S)NN(Cc1ccccc1)c1ccccc1	inconclusive: 14.1 µM [activator, partial curve]
COc1ccc(CCNC(=O)COc2ccc(S(=O)(=O)NC(C)C)cc2Cl)cc1OC	inconclusive: 31.6 µM [activator, single point]
COC(=O)[C@@]1(Cc2ccc(F)cc2)[C@H]2c3cc(C(=O)N4CCCC4)n(Cc4ccc(OC(F)(F)F)cc4)c3C[C@H]2CN1C(=O)c1ccccc1	inconclusive: 20 µM [activator, partial curve, poor fit]
Cc1ccc(C)c(S(=O)(=O)N2CCN(C(=O)c3ccc(OCc4c(C)noc4C)cc3)CC2)c1	inactive
COC(=O)[C@]12C[C@H](CC(=O)NCc3cccc(C(F)(F)F)c3)C(=O)N(Cc3cccc4ccccc34)C1=C[C@H](COCc1ccccc1)O[C@@H]2C	inconclusive: 20 µM [activator, single point]
COc1ccc(Cn2ccc3nc(C)c(C(=O)N4CCN(c5ccccc5OC)CC4)cc3c2=O)cc1	inactive
COc1ccc(NC(=O)C2(C)Cc3c(-c4ccc5c(c4)OCO5)ccnc3O2)cn1 (centres undefined)	inconclusive: 35.5 µM [activator, single point]
O=C(NNc1ccccc1)Nc1cc(Cl)ccc1Cl	inactive
CCCCCCCCN1C(=O)[C@H](CC(=O)NCc2ccccc2)C[C@@]2(C(=O)OC)CCCCC=C12	inconclusive: 11.2 µM [activator, partial curve, poor fit]
CCCCN=C1NN=C(c2ccc3c(c2)OCCO3)CS1	inconclusive: 25.1 µM [activator, single point]
c1ccc(OCCNc2ccn3nc(-c4ccco4)cc3n2)cc1	inactive
CCc1ccc(-n2nc(CO)c(C(=O)NCC(c3ccccc3)c3ccccc3)n2)cc1	inactive
COc1cccc(CN2C(=O)[C@H]3Cc4c([nH]c5ccccc45)C(C)(C)N3C2=O)c1	inconclusive: 31.6 µM [activator, single point]
Cc1c(CC(=O)N2CCC(C(N)=O)CC2)c(=O)oc2cc3c(cc12)CCC1(CCCCC1)O3	inconclusive: 28.2 µM [activator, single point]
CSc1ccccc1NC(=S)NCc1ccc(Cl)cc1	inactive

SMILES	Potency
Cc1ccc(-c2cn3c(n2)sc2cc(C(=O)NCc4cccs4)ccc23)c(C)c1	inconclusive: 39.8 µM [activator, single point]
CCc1ccc(-c2cc(C)no2)cc1S(=O)(=O)Nc1ccc(C)cn1	inactive
CCOc1ccc(CNC(=O)c2ccc(NC(=O)N3CCSc4ncccc43)cc2)cc1OC	inactive
O=C(C[C@H]1C[C@H](C(=O)N2CCOCC2)[C@@]2(CCC3CCCC3)c3[nH]c4cc(-c5ccco5)ccc4c3CCN2C1=O)NCCC1=CCCCC1	inconclusive: 12.6 µM [activator, partial curve, poor fit]
Cc1cccc(NC(=S)NNC(=O)c2csc3c2CCCC3)c1	inconclusive: 25.1 µM [activator, single point]
Cc1ccccc1-c1ccc(CN2C(C)C(=O)N(Cc3cn(Cc4ccco4)nn3)CCS2(=O)=O)cc1 (centres undefined)	inconclusive: 35.5 µM [activator, single point]
CC(=O)c1cccc(NC(=O)CN2C(=O)c3cccnc3Sc3ccccc32)c1	inconclusive: 50.1 µM [activator, single point]
COc1cc(CN(C(=O)c2ccc(OC(C)C)cc2)C2CCS(=O)(=O)C2)cc(OC)c1OC (centres undefined)	inconclusive: 31.6 µM [activator, partial curve, poor fit]
Clc1ccc(-c2nc(/C=N/N3CCOCC3)c3ccccn23)cc1	inconclusive: 15.8 µM [activator, partial curve]
CCc1ccccc1Nc1ncnc2c1cnn2-c1ccc(Cl)cc1	inactive
COC(=O)c1ccc(Cn2c(SCC(=O)NCc3ccccc3)nc3ccccc32)cc1	inconclusive: 22.4 µM [activator, single point]
COc1ccc(-n2c(SCC#N)nnc2-c2ccc(NS(=O)(=O)c3ccc(C)cc3)cc2)cc1	inconclusive: 39.8 µM [activator, single point]
COc1ccc(OC)c(NC(=O)Cc2c(C)n(C(=O)c3ccc(Cl)cc3)c3ccc(OC)cc23)c1	inconclusive: 2.51 µM [activator, full curve]
C#CCOCCOCCOCCNc1nc(N2CCN(C(=O)[C@H]([C@@H](C)CC)n3cc([C@@H](N)CC(C)C)nn3)CC2)nc(N2CCN(C(=O)[C@H](Cc3ccc(O)cc3)n3cc([C@@H](N)C(C)CC)nn3)CC2)n1 (some centres undefined)	inconclusive: 2.24 µM [activator, full curve]
COc1ccc([C@H]2CC(=O)C=C(c3ccnc4ccc(Cl)cc34)C2)cc1	inconclusive: 28.2 µM [activator, single point]
COc1cc(-c2nnc(SCC(=O)Oc3ccccc3)o2)cc(OC)c1OC	inactive
C/C(=N\OCc1nc2ccccc2c(=O)n1/N=C/c1cc([N+](=O)[O-])ccc1O)c1ccccc1	inconclusive: 50.1 µM [activator, single point]
Cc1ccc(-n2c(SCC(=O)c3ccc(O)c(O)c3)nnc2-c2ccccc2)cc1	active: 7.94 µM
COc1ccc(C2CC(c3cccc(OC)c3)=NN2c2ccc(S(N)(=O)=O)cc2)cc1 (centres undefined)	inconclusive: 35.5 µM [activator, single point]

From PubChem BioAssay AID1347120 (National Center for Advancing Translational Sciences (NCATS), 2019)
